{"source": "PubChem BioAssay AID1468", "about": "(National Center for Advancing Translational Sciences (NCATS), 2008)", "note": "The campaign covered roughly 280,000 compounds. About 1,100 (0.39%) were called active. This list was built around the results that the source calls inconclusive (neither active nor inactive); the mix of calls is not that of the screen. The call rests on the fitted dose curve; in most records, active means well fitted inhibition curve with a large enough effect; inconclusive means small, poorly fitted or top-dose-only effect, or effect the other way; inactive means flat fitted curve, though single readings scatter. No potency is given beside an inconclusive call; the fits are too rough. On the % scale 0 is the no-effect control and ±100 the full control effect; potency means the concentration at half of the fitted maximal effect; tags describe the fitted curve by direction and shape.", "data": [{"target": "Microtubule-associated protein tau (Homo sapiens) (UniProt P10636)", "sequence (P10636 whole entry, looked up)": "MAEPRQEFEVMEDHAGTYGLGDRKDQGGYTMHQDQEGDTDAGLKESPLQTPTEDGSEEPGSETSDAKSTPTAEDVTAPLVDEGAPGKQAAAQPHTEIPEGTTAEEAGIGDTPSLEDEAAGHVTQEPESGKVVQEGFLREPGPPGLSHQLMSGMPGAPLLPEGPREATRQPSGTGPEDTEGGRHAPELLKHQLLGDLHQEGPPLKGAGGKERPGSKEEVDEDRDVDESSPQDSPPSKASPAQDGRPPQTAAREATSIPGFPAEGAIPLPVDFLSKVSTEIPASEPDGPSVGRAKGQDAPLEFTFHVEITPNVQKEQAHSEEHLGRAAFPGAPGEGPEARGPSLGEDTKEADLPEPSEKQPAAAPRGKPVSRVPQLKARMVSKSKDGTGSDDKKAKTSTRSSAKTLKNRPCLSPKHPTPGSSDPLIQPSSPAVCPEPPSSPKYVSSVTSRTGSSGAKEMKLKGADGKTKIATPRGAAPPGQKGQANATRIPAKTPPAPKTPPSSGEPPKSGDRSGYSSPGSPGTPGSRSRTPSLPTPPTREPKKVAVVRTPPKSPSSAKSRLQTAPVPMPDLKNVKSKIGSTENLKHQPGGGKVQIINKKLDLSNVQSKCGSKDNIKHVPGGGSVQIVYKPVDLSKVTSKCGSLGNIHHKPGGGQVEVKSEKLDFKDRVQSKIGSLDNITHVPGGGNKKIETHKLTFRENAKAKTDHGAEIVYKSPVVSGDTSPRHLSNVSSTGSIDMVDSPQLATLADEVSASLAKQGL", "test": "qHTS for Inhibitors of Tau Fibril Formation, Fluorescence Polarization; further: nearly all actives have a fitted effect of over 55% in size", "conditions": "K18 P301L tau heparin fibrillization, Alexa594 FP, 6 h; series mostly up to 57.7 µM; activity, negative = inhibition: at the top concentration", "method_in_brief": "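Compound effects on tau fibrillization are measured by Alexa 594 fluorescence polarization (ex 555, em 632 nm). K18 P301L tau is used at 15 uM with 0.24 uM labeled tracer, and 20 uM heparin induces aggregation over 6 hr at 37 C.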", "values": [{"smiles": "Fc1ccc(NC(=S)Nc2nccs2)cc1", "activity, negative = inhibition": "inactive: -1.54%"}, {"smiles": "CC(C)Cn1c(/C=C/c2ccco2)nc2ccccc21", "activity, negative = inhibition": "inactive: -4.09%"}, {"smiles": "CC1=C(C(=O)Nc2ccccc2)C(c2cc(CN3CCOCC3)cs2)C2=C(CCCC2=O)N1", "note": "(stereo unspecified)", "Potency": "inconclusive [inhibitor, single point]"}, {"smiles": "O=[N+]([O-])c1cccnc1N1CCN(c2ccccc2F)CC1", "activity, negative = inhibition": "inactive: 4.2%"}, {"smiles": "Oc1ccc(/C=N/Nc2ccc3ccccc3c2)c(O)c1", "Potency": "inconclusive [inhibitor, single point]"}, {"smiles": "O=C(Cn1nc(-c2ccccc2)nc(Cc2ccccc2)c1=O)Nc1ccc(Cl)cc1", "activity, negative = inhibition": "inactive: -8.54%"}, {"smiles": "COC(=O)C1=C(C(=O)OC)[C@@H]2Nc3ccccc3[C@@]23C[C@@H](C(=O)OC)N(S(=O)(=O)c2ccc4c(c2)OCCN4C)C3=N1", "Potency": "inconclusive [activator, single point]"}, {"smiles": "O=C(Nc1nc2ccc(S(=O)(=O)N3CCCC3)cc2s1)c1ccco1", "Potency": "inconclusive [inhibitor, single point]"}, {"smiles": "O=c1c(Br)c(Br)cnn1-c1ccccc1", "Potency": "inconclusive [inhibitor, partial curve]"}, {"smiles": "O=C(COC(=O)c1cc(S(=O)(=O)Nc2ccccc2Cl)ccc1O)Nc1nc2ccccc2s1", "Potency": "inconclusive [inhibitor, single point]"}, {"smiles": "O=C(Cn1ccn(-c2ccc(F)cc2)c(=O)c1=O)Nc1ccccc1C(F)(F)F", "Potency": "inconclusive [inhibitor, partial curve]"}, {"smiles": "CN1CCN(C2=C(Cl)C(=O)N(CCc3ccccc3)C2=O)CC1", "activity, negative = inhibition": "inactive: 0.218%"}, {"smiles": "CCOC(CNC(=O)c1ccc(N2CCc3ccccc32)c([N+](=O)[O-])c1)OCC", "Potency": "inconclusive [activator, single point]"}, {"smiles": "O=C(N/C=C/c1ccccc1)Nc1ccc(Cl)cc1", "Potency": "inconclusive [activator, full curve, poor fit]"}, {"smiles": "O=C(Nc1ccc(Cl)cc1Cl)c1cc(S(=O)(=O)N2CCCCCC2)ccc1F", "activity, negative = inhibition": "inactive: -3.78%"}, {"smiles": "Cc1ccc(NS(=O)(=O)c2cccc(C(=O)N/N=C/c3c(C)nn(-c4ccccc4)c3N3CCCC3)c2)c(C)c1", "Potency": "inconclusive [activator, full curve, poor fit]"}, {"smiles": "O=C(O)C1CCc2sc3[nH]c(=S)n(-c4ccccc4)c(=O)c3c21", "note": "(stereo unspecified)", "activity, negative = inhibition": "inactive: -3.03%"}, {"smiles": "O=C(COc1ccccc1N1C(=O)C2C3C=CC(C3)C2C1=O)c1ccccc1", "note": "(stereo unspecified)", "Potency": "inconclusive [inhibitor, single point]"}, {"smiles": "Cc1ccc(NCCC(=O)c2ccccc2)cc1Cl", "Potency": "inconclusive [activator, single point]"}, {"smiles": "Cc1ccc(C2CC(=O)N3CN(c4ccc(Br)cc4)CSC3=C2C#N)o1", "note": "(stereo unspecified)", "Potency": "inconclusive [inhibitor, single point]"}, {"smiles": "c1ccc(-c2cc3ncc4c(n3n2)-c2ccccc2OC4)cc1", "Potency": "inconclusive [inhibitor, partial curve]"}, {"smiles": "Cc1cccc(C2NC(c3cccc(C)c3)C([N+](=O)[O-])C(C)(C)C2[N+](=O)[O-])c1", "note": "(stereo unspecified)", "Potency": "inconclusive [inhibitor, single point]"}, {"smiles": "CCOC(=O)C1=C(C)NC(=S)N(C(C)=O)C1c1ccc(Cl)cc1", "note": "(stereo unspecified)", "Potency": "inconclusive [inhibitor, partial curve]"}, {"smiles": "O=C(Cn1c(=O)n(Cc2ccco2)c(=O)c2oc3ccccc3c21)Nc1ccc(F)c(Cl)c1", "Potency": "inconclusive [inhibitor, full curve, poor fit]"}, {"smiles": "O=C(N/N=C\\c1ccc(-c2ccccc2[N+](=O)[O-])o1)C1COc2cc3ccccc3cc2O1", "note": "(stereo unspecified)", "Potency": "inconclusive [inhibitor, partial curve]"}, {"smiles": "CN(C(=O)CSc1ncnc2sccc12)c1c(N)n(Cc2ccccc2)c(=O)[nH]c1=O", "activity, negative = inhibition": "inactive: -3.42%"}, {"smiles": "Cc1ccc(C)n1-c1sc2c(c1C(=O)O)CCCC2", "Potency": "inconclusive [inhibitor, single point]"}, {"smiles": "CCOc1cc(C#N)c(NC(=O)c2ccc(OC)c(S(=O)(=O)N3CCN(c4ccccc4)CC3)c2)cc1OCC", "Potency": "inconclusive [inhibitor, single point]"}, {"smiles": "COc1ccc(-n2nc3cc(C)c(N)c(Br)c3n2)cc1", "Potency": "inconclusive [inhibitor, single point]"}, {"smiles": "N#CC1=C2SCN(C3CCCCC3)CN2C(=O)CC1c1ccc(Br)cc1", "note": "(stereo unspecified)", "Potency": "inconclusive [inhibitor, partial curve]"}, {"smiles": "O=C(Oc1cccc(NC(=O)c2cccs2)c1)c1cccc(S(=O)(=O)N2CCCC2)c1", "Potency": "inconclusive [inhibitor, partial curve]"}, {"smiles": "COc1ccccc1NC(=S)NNC(=O)c1nn(C)cc1Cl", "activity, negative = inhibition": "inactive: -3.48%"}, {"smiles": "Cc1cc(C)cc(NS(=O)(=O)c2ccc(NC(=S)NC(=O)c3ccc(Br)o3)cc2)c1", "Potency": "inconclusive [inhibitor, partial curve]"}, {"smiles": "COc1cc(O)c(CC=C(C)C)c(O)c1C(=O)CCc1ccc(O)cc1", "Potency": "active: 15.8 µM"}, {"smiles": "Cc1cc(C)cc(NC(=O)CSc2nc3c([nH]c4ccccc43)c(=O)n2-c2ccc(F)cc2)c1", "activity, negative = inhibition": "inactive: -13.6%"}, {"smiles": "Cc1ccccc1NS(=O)(=O)c1cc(C(=O)NCCC2=CCCCC2)ccc1Cl", "Potency": "inconclusive [inhibitor, single point]"}, {"smiles": "CN(C)c1ccc(CNC(=O)C2(C)C=CCN2C(=O)c2ccccc2)cc1", "note": "(stereo unspecified)", "activity, negative = inhibition": "inactive: 4.88%"}, {"smiles": "CC(C)(C)c1nc(S(=O)(=O)c2ccc(Cl)cc2)c(N2CCOCC2)o1", "Potency": "inconclusive [inhibitor, single point]"}, {"smiles": "Cc1ccc(C)c(CN2C(=O)c3ccccc3S(=O)(=O)c3ccc(C(=O)Nc4cc(F)ccc4F)cc32)c1", "Potency": "inconclusive [inhibitor, partial curve]"}, {"smiles": "Fc1ccc(Nc2nc(SCc3cccc(Cl)c3)nc3ccccc23)cc1", "Potency": "active: 8.91 µM"}, {"smiles": "CCOc1ccc(NC(=O)CN2CCN(CC(=O)Nc3ccc(F)cc3)CC2)cc1", "activity, negative = inhibition": "inactive: -4.3%"}, {"smiles": "Cc1ccc2nc(Cl)c3cc(C(=O)NCCCN4CCCC4)sc3c2c1", "Potency": "inconclusive [activator, full curve, poor fit]"}, {"smiles": "Cn1c(CCNC(=O)c2ccc(Cl)c(Cl)c2)nnc1SCc1ccc(Cl)c(Cl)c1", "Potency": "inconclusive [inhibitor, partial curve, poor fit]"}, {"smiles": "O=C(Nc1ccc(OC(F)(F)F)cc1)C(Cc1ccccc1)NS(=O)(=O)c1cccc2nsnc12", "note": "(stereo unspecified)", "Potency": "active: 15.8 µM"}, {"smiles": "CCOC(=O)c1sc(NC(=O)CCCCl)nc1C", "activity, negative = inhibition": "inactive: -3.27%"}, {"smiles": "CC1CCCN(CCCNC(=O)c2ccc3c(c2)N(Cc2cccc(Cl)c2)C(=O)c2ccccc2S3(=O)=O)C1", "note": "(stereo unspecified)", "activity, negative = inhibition": "inactive: -12.1%"}, {"smiles": "Cc1cc(C)cc(-n2nnnc2SCC(=O)Nc2nc(-c3ccc(F)cc3)cs2)c1", "Potency": "inconclusive [inhibitor, partial curve, poor fit]"}, {"smiles": "CCOC(=O)c1c(Nc2ccc(O)cc2)nnc(-c2ccccc2)c1-c1ccccc1", "activity, negative = inhibition": "inactive: -6.25%"}, {"smiles": "Cc1ccc(S(=O)(=O)c2nnn3c2nc(NCc2ccc4c(c2)OCO4)c2sccc23)cc1", "Potency": "inconclusive [inhibitor, partial curve]"}, {"smiles": "O=C(c1cnc2n(c1=O)CCS2)N1CCN(C(c2ccccc2)c2ccc(Cl)cc2)CC1", "note": "(stereo unspecified)", "Potency": "inconclusive [inhibitor, single point]"}, {"smiles": "CC12CCC(C(=O)N(CSC(=S)N/N=C\\c3ccccc3)C1=O)C2(C)C", "note": "(stereo unspecified)", "Potency": "inconclusive [inhibitor, partial curve, poor fit]"}, {"smiles": "Cc1ccc(C(=O)NNC(=S)Nc2cccc3ccccc23)s1", "Potency": "inconclusive [inhibitor, partial curve]"}, {"smiles": "O=C(Nc1nnc(C2CC2)s1)c1ccco1", "activity, negative = inhibition": "inactive: 8.29%"}, {"smiles": "COc1ccc(C(CCN(Cc2ccc(OC)c(OC)c2)C(C)=O)c2ccccc2)cc1", "note": "(stereo unspecified)", "Potency": "inconclusive [inhibitor, single point]"}, {"smiles": "Cc1ccc(NC(=O)CSc2nnc(-c3nnn(-c4ccc(F)cc4)c3C)o2)cc1Br", "Potency": "inconclusive [inhibitor, partial curve]"}, {"smiles": "Cc1ccc(OCC(=O)Nc2nonc2-c2ccc(C)c(C)c2)cc1C", "activity, negative = inhibition": "inactive: 2.12%"}, {"smiles": "O=C(NC1CCCCC1)C(c1ccc(O)c(O)c1)N(C(=O)Cn1nnc2ccccc21)c1cccc(O)c1", "note": "(stereo unspecified)", "activity, negative = inhibition": "inactive: -3.65%"}, {"smiles": "CCN(CC)S(=O)(=O)c1ccc2nc(COC(=O)c3n[nH]c4ccccc34)[nH]c2c1", "Potency": "inconclusive [inhibitor, single point]"}, {"smiles": "Nc1ccc(Oc2ccc3nc(-c4ccccc4)c(-c4ccc([N+](=O)[O-])cc4)nc3c2)cc1", "Potency": "inconclusive [activator, partial curve]"}, {"smiles": "CCCCn1c(=NC(=O)C(C)(C)Oc2ccc(Cl)cc2)c(C(=O)OCC)cc2c(=O)n3ccccc3nc21", "activity, negative = inhibition": "inactive: 3.46%"}, {"smiles": "Cc1cc(C2(c3ccc(O)c(C)c3)C(=O)Nc3ccccc32)ccc1O", "Potency": "inconclusive [inhibitor, single point]"}, {"smiles": "COc1cccc(C(=O)Nc2nc3ccc(S(=O)(=O)N4CCCC4)cc3s2)c1", "Potency": "inconclusive [inhibitor, single point]"}, {"smiles": "CC(=O)NC(=S)Nc1ccc(NC(=O)COc2ccc(C(C)C)cc2)cc1", "activity, negative = inhibition": "inactive: -14.5%"}, {"smiles": "CCCCC(=O)Nc1ccc(C(=O)NNC(=S)NC(=O)c2ccco2)cc1", "activity, negative = inhibition": "inactive: 0.0826%"}, {"smiles": "COc1ccc(-c2cc(C(=O)Oc3ccc(C)cc3)c3ccccc3n2)cc1", "Potency": "inconclusive [inhibitor, partial curve]"}, {"smiles": "Cc1ccc(NS(=O)(=O)c2ccc(-c3cnc(C4CC4)o3)cc2)cc1N(C)C", "Potency": "inconclusive [activator, partial curve]"}]}]}
